Reference: PMC3347801
Results are given in words; binding and its absence hold for the method and conditions named. Binding seen in cells or lysates may run through a third protein. Some results given as binding are weak or reduced against the parent protein; the word gives no strength.

Key:
Test in all cases: co-IP; lysates of transfected HEK-293T cells (20 mM Tris/HCl pH 7.4, 150 mM NaCl, 1 mM EDTA, 1 % Triton X-100, 20 mM iodoacetamide) immunoprecipitated with anti-E2 serum R646, 2 h at 4 °C, protein A–Sepharose; reducing and non-reducing SDS-PAGE; blot with anti-E1 mAb A4 and anti-E2 mAbs AP33 and ALP98; grades are the estimated amount relative to WT
[1] = molecular target: HCV E2 glycoprotein insertion mutant in424 (hepatitis C virus genotype 1a strain H77c) (UniProt P27958)
[2] = molecular target: HCV E2 glycoprotein insertion mutant in413 (hepatitis C virus genotype 1a strain H77c) (UniProt P27958)
[3] = molecular target: HCV E2 glycoprotein insertion mutant in422 (hepatitis C virus genotype 1a strain H77c) (UniProt P27958)
[4] = molecular target: HCV E2 glycoprotein insertion mutant in540 (hepatitis C virus genotype 1a strain H77c) (UniProt P27958)
[5] = molecular target: HCV E2 glycoprotein insertion mutant in620 (hepatitis C virus genotype 1a strain H77c) (UniProt P27958)
[6] = molecular target: HCV E2 glycoprotein insertion mutant in573 (hepatitis C virus genotype 1a strain H77c) (UniProt P27958)
[7] = molecular target: HCV E2 glycoprotein insertion mutant in549 (hepatitis C virus genotype 1a strain H77c) (UniProt P27958)
[8] = molecular target: HCV E2 glycoprotein insertion mutant in630 (hepatitis C virus genotype 1a strain H77c) (UniProt P27958)
[9] = molecular target: HCV E2 glycoprotein insertion mutant in577 (hepatitis C virus genotype 1a strain H77c) (UniProt P27958)
[10] = molecular target: HCV E2 glycoprotein insertion mutant in596 (hepatitis C virus genotype 1a strain H77c) (UniProt P27958)
[11] = molecular target: HCV E2 glycoprotein insertion mutant in732 (hepatitis C virus genotype 1a strain H77c) (UniProt P27958)

Measured: binding

HCV envelope glycoprotein E1, wild type (genotype 1a strain H77c) (from UniProt P27958 192-383)
binds: all assays above
